To fix the notation:
B1: LINE1-mini (parent)
chain: GGCAGAGCUCAACACAGCGUGGCAAAGUGGCUGUGGCUAGACUGCC

Read counts are not given, so values of variants with three or more changes are uncertain.

In the data set the parent is B1. Put plainly: self-cleavage, relative activity (ratio to wild type); higher = more cleavage; in vitro, sequencing; the parent is a self-cleaving ribozyme.
For GGCAGAGCUCCACACAGCGUAGCAAUGUGGCUGUGGCUAGACUGCA [A11C G21A A26U C46A], the self-cleavage amounted to 0.

For GGCAGAGCUCCACACAGCUUGGCAAAGUGGAUGUGACUAGACUGCC [A11C G19U C31A G36A], the self-cleavage came out at 0.

Consider GGCAGAGCUCCACACAGCGUGGCAAAGGGGUUGUUACUAGACUGAC [A11C U28G C31U G35U G36A C45A], for which the self-cleavage came out at 0.

GGCAGAGCUCCACACAGCGUCGGAAAGUGGCUGUGGCUAGCCUGCC [A11C G21C C23G A41C]: the self-cleavage was determined as 0.

In the case of GGCAGAGCUCCACACAGCGUCUCAAAUUGGCUGUGGCUAGACUGCC [A11C G21C G22U G27U], the self-cleavage is 0.01.

For GGCAGAGCUCCACACAGCGUGGCAAAGUAGCUGUGGCUGGACUGCC [A11C G29A A39G], the self-cleavage was determined as 0.

For GGCAGAGCUCGCCACAGCUUGGCAAAGUGGCAGUGGAUAGACUGCC [A11G A12C G19U U32A C37A], the self-cleavage worked out at 0.01.

Take GGCAGAGCUCCACACAGCGUGGCAAAGUGACUGUGGCUAGACUGCA [A11C G30A C46A]: the self-cleavage was 0.04.

On to GGCAGAGCUCCACACAGCGUGGCAAAGUGGCUGUAGCUAGACUUCC [A11C G35A G44U], for which the self-cleavage was 0.01.

For the variant GGCAGAGCUCCACACAGCGGGGCAUAGUGGCUGUGGCUAGACAGCC [A11C U20G A25U U43A], the self-cleavage came to 0.02.

Consider GGCAGAGCUCCACACAGCGUGGCAAAGUGGCUGUGGCUACAAUGCC [A11C G40C C42A], for which the self-cleavage amounted to 0.01.

Consider GGCAGAGCUCGGCACAGCGUGGCAAAGUAGGUGUGGCUAGACUGCC [A11G A12G G29A C31G], for which the self-cleavage was determined as 0.02.

In the case of GGCAGAGCUCCACACAGCUUGGCAAAAUGGCUGUGGCUAGACUGCC [A11C G19U G27A], the self-cleavage is 0.04.

Take GGCAGAGCUCCACACAGCGCGGAAAAGUGGCUGUGGCUAGACUGCU [A11C U20C C23A C46U]: the self-cleavage is 0.05.

Take GGCAGAGCUCCACACAGCGUGGAAAAGUGGCUGUGGCUAGACCCCC [A11C C23A U43C G44C]: the self-cleavage amounted to 0.01.

For the variant GGCAGAGCUCCACACAGCGUUGCAAAGUGGCUGUGGCUAGAGUGCC [A11C G21U C42G], the self-cleavage turned out to be 0.02.

For GGCAGAGCUCCACACAGCGAGGCAAAGGGGCUGUGGCUAGACUGCC [A11C U20A U28G], the self-cleavage is 0.02.

Consider GGCAGAGCUCCACACAGCGUGGCAAAGUGGCUGUUGCUAUAUUGCC [A11C G35U G40U C42U], for which the self-cleavage turned out to be 0.01.

As to GGCAGAGCUCGUCACAGCGUGGCAAAGUGGCUGUUGCUAGACUGCC [A11G A12U G35U], the self-cleavage was 0.02.

As to GGCAGAGCUCCACACAGCGUGGCAAACUGGCUGUGGCUAUACUGCC [A11C G27C G40U], the self-cleavage came out at 0.02.

Regarding GGCAGAGCUCCACACAGCAUGGCAAAGUGGCUGUGGCUAGAAUGCC [A11C G19A C42A], the self-cleavage was 0.02.

As to GGCAGAGCUCCACACAGCUUGACAAAGUGGCUGUGGCAAGACUGCC [A11C G19U G22A U38A], the self-cleavage was 0.85.

In the case of GGCAGAGCUCCACACAGUGUGGCAAAGUGGCUGUCACUCGACUGCC [A11C C18U G35C G36A A39C], the self-cleavage was 0.02.

As to GGCAGAGCUCCACACAGCGUGUCAACGUGGUUGUGGCUAGACUGCC [A11C G22U A26C C31U], the self-cleavage was determined as 0.02.

On to GGCAGAGCUCGACACCGCAUGGCAAAGUGUCUGUGGCUAGACUGCC [A11G A16C G19A G30U], for which the self-cleavage turned out to be 0.

Consider GGCAGAGCUCCACACAGCGUGCCAAACAGCCUGUGGCUAGCCUGCC [A11C G22C G27C U28A G30C A41C], for which the self-cleavage was 0.01.

With GGCAGAGCUCGACACGGCGUGGCAAAGUAGCUUUGGCUAGACUGCC [A11G A16G G29A G33U], the self-cleavage was 0.

On to GGCAGAGCUCCACACAGCGCGAAAAAGUGGCUGUGGCUAGACUGCC [A11C U20C G22A C23A], for which the self-cleavage was 0.03.

As for GGCAGAGCUCGACGCAGCGCGGCAAAGUGGCUGUGGCUCGACUGCC [A11G A14G U20C A39C], the self-cleavage turned out to be 0.08.

For GGCAGAGCUCCACACAGCGUGGUAAAGUGGCUGUGUUAAAACUGAC [A11C C23U G36U C37U U38A G40A C45A], the self-cleavage came out at 0.

For the variant GGCAGAGCUCCACACACCGUGGCAGAGUGGCUGUGGCCAGACUGCC [A11C G17C A25G U38C], the self-cleavage is 0.02.

Take GGCAGAGCUCCACACAGCUUGGCAAAGUAGCUGUGGCUAGUCUGCC [A11C G19U G29A A41U]: the self-cleavage turned out to be 0.03.

Turning to GGCAGAGCUCCACACAUCGUGGCAAAGUGUCUGUGGCUAGACUGCC [A11C G17U G30U], the self-cleavage amounted to 0.

For GGCAGAGCUCCACACAGUGCGGCACAGUAGCUGUGGCGAGACUGCC [A11C C18U U20C A25C G29A U38G], the self-cleavage worked out at 0.

Consider GGCAGAGCUCCACACAUCGUGGCAAAGCGACUGUGGCUAGCCUGCC [A11C G17U U28C G30A A41C], for which the self-cleavage came out at 0.01.

Take GGCAGAGCUCCACACAGCGUGGCAAAGUGGCCGUGGCUAUACUGCC [A11C U32C G40U]: the self-cleavage came out at 0.02.

Consider GGCAGAGCUCCACACAGCGUGGAAAAGUGGCUGUGGCUAGUCUGCU [A11C C23A A41U C46U], for which the self-cleavage came to 0.03.

For GGCAGAGCUCCACACAGCGCGGCAAAGUGGCUGUAGCUGGACUGCU [A11C U20C G35A A39G C46U], the self-cleavage came out at 0.

For GGCAGAGCUCCACACAGCGUGUCAAUGAGGCUGUGGCUAGACUGCC [A11C G22U A26U U28A], the self-cleavage was found to be 0.01.

For GGCAGAGCUCGACACCGCGUAGCAAAGUGGCUGUGGCUAGACUGCC [A11G A16C G21A], the self-cleavage is 0.

GGCAGAGCUCGACGUAGAGUGGCAAAGUGGCUGUGGCUUGAAUGCC [A11G A14G C15U C18A A39U C42A]: the self-cleavage came out at 0.

As to GGCAGAGCUCCACACAGCGUGGCAAAGUGGCUUUGGAUAGACAGCC [A11C G33U C37A U43A], the self-cleavage was 0.

Regarding GGCAGAGCUCCACACAGCGUGGCAAAGUGUCUGUGGCUAUACUUCC [A11C G30U G40U G44U], the self-cleavage came out at 0.01.

For GGCAGAGCUCGACGCAGCGUGGCAAAGUCGCUGUGGCUAUACUGCC [A11G A14G G29C G40U], the self-cleavage is 0.01.

Take GGCAGAGCUCGACCCAGCGUGGAAAAGUGGCUGUGGCUAGACUGCC [A11G A14C C23A]: the self-cleavage worked out at 0.01.

Consider GGCAGAGCUCCACACAGCGUGGCAAAGUGGCUGGGGAUAGACUGCC [A11C U34G C37A], for which the self-cleavage came to 0.

With GGCAGAGCUCCACACAGCCUGGCAAAGUGGCUGUGGCUAGACUGCA [A11C G19C C46A], the self-cleavage is 0.01.

GGCAGAGCUCGACGGAGCGUGGCAAAGUGGCUGUGGCUAGACUGCC [A11G A14G C15G]: the self-cleavage was 0.02.

For the variant GGCAGAGCUCCACACAUCGUGGCAAAGUGGCUGUGGCUAGACUGCA [A11C G17U C46A], the self-cleavage turned out to be 0.01.

For the variant GGCAGAGCUCCACACAGCGGAGCACAGUGGCUGUGGCUAGACUGCC [A11C U20G G21A A25C], the self-cleavage came to 0.01.

For the variant GGCAGAGCUCCACACAGCGUGGCAAAGUGGCCGAGGCUAGUCUGCC [A11C U32C U34A A41U], the self-cleavage is 0.01.

Take GGCAGAGCUCCACACAGCGUGGCAAAGUGGCUGUGGAUUGACUGUC [A11C C37A A39U C45U]: the self-cleavage stood at 0.02.

On to GGCAGAGCUCCACACAGCGUCGAAAACUGGCUAUCGCUAGACUGCC [A11C G21C C23A G27C G33A G35C], for which the self-cleavage was found to be 0.01.

As to GGCAGAGCUCCACACAGCGUGGCAAAGUGGGUGUAGCUAGACUGCC [A11C C31G G35A], the self-cleavage turned out to be 0.

Take GGCAGAGCUCCACACAGCGUGACAAAGUGGCUGUGGCUAGACUACC [A11C G22A G44A]: the self-cleavage amounted to 0.02.

In the case of GGCAGAGCUCCACACAGCGUGGCAAAGAGGCUGUGGCUAGACUGCA [A11C U28A C46A], the self-cleavage turned out to be 0.04.

For the origin of these results see the RNAGym collection of RNA variant scans (doi:10.7554/elife.90254).
